# Experimental data taken from PubChem BioAssay AID1476 (National Center for Advancing Translational Sciences (NCATS), 2009).
# Among all 200,000 compounds or so, about 4,500 (2.2%) were called active. This list was built around the results that the source calls inconclusive (neither active nor inactive); the mix of calls is not that of the screen. Calls follow the shape of the dose curve; as a rule, active = well fitted inhibition curve with a large enough effect; inconclusive = small, poorly fitted or top-dose-only effect, or effect the other way; inactive = flat fitted curve, though single readings scatter. Potencies beside an inconclusive call are fits to weak or partial responses and may not hold up.
# Target: Cruzipain (Trypanosoma cruzi) (UniProt P25779)
# Chain of UniProt P25779 (P25779 whole entry, looked up): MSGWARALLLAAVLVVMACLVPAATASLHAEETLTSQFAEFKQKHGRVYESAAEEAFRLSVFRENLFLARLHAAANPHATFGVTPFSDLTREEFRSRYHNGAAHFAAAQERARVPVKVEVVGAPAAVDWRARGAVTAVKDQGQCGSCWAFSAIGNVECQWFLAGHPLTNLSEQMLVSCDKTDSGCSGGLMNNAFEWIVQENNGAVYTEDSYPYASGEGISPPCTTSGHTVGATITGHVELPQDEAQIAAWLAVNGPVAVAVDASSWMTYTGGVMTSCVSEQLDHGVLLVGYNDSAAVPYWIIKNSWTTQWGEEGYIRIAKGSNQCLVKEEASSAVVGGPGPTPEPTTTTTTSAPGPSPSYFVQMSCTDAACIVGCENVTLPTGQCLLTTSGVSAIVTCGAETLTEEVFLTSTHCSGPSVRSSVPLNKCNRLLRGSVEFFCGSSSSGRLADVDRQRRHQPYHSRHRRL
# Test: qHTS Assay for Promiscuous and Specific Inhibitors of Cruzain (without detergent); also: nearly all actives have a fitted effect of over 40% in size;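 as to max response, negative = inhibition: plate controls were enzyme without inhibitor for no effect and buffer without enzyme for full effect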
# Details: purified cruzain, Z-FR-AMC fluorescence, no detergent
# Summary of the method: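 Detergent-free condition (0.00005% Triton X-100) in acetate buffer pH 5.5 with DTT. 1.5 nM enzyme and compound were pre-mixed 15 min, then 2 uM Z-FR-AMC substrate added; reaction progress from fluorescence change between first and third reads (60 s).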
# Potency is read from the fitted curve at half-maximal effect; tags tell the direction and shape of the fitted curve.
SMILES,Potency,"max response, negative = inhibition"
CCCCCc1ccc(-c2ccc(/C=C/C(N)=O)cc2)nc1,active: 12.6 µM,–
CCOc1ccc(N(CC)S(=O)(=O)N2CCCC(C(=O)Nc3ccc(OC)c(OC)c3)C2)cc1 (stereo not given),"inconclusive: 31.6 µM [activator, partial curve]",–
O=C(Nc1ccccc1Cl)c1cc(S(=O)(=O)N2CCC3(CC2)OCCO3)ccc1F,"inconclusive: 31.6 µM [activator, single point]",–
CCOC(=O)C1CCCN(C(=O)c2cccc(NC(=O)c3nsc4ccccc34)c2)C1 (stereo not given),–,inactive: 9.31%
CCOc1ccc(OCC)c(NC(=O)c2cc(CN3CCOCC3)on2)c1,–,inactive: -1.34%
Cc1ccc(S(=O)(=O)c2cnc(SC(C)C(=O)Nc3ccccc3)[nH]c2=O)cc1 (stereo not given),–,inactive: 24.5%
COc1ccc(Br)cc1C(=O)Nc1cccc(C)c1C,"inconclusive: 39.8 µM [inhibitor, single point]",–
CCOC(=O)c1ccc(NC(=O)Nc2ccc3c4c(cccc24)C(=O)N3CC)cc1,"inconclusive: 25.1 µM [activator, single point]",–
COc1cc(NC(=O)c2ccc(-c3nc(COc4ccccc4)c(C)o3)cc2)cc(OC)c1,–,inactive: -18.7%
CCOC(=O)N1CCC(NC(=O)c2ccc3c(c2)N(Cc2ccccc2)C(=O)c2ccccc2S3=O)CC1 (stereo not given),"inconclusive: 39.8 µM [activator, single point]",–
Cc1ccccc1-c1nc2cc(NC(=O)c3cccc(OCCC(C)C)c3)ccc2o1,–,inactive: -8.64%
O=C(OCn1nnc2ccccc2c1=O)c1cc(-c2ccccc2)nc2ccccc12,"inconclusive: 39.8 µM [inhibitor, single point]",–
CC1CCN(C2=C(NS(=O)(=O)c3ccc(Cl)cc3)C(=O)c3ccccc3C2=O)CC1,–,inactive: -17.5%
CCn1c(=O)c2cc(C(=O)Nc3cc(C)on3)sc2c2ccccc21,"inconclusive: 39.8 µM [inhibitor, single point]",–
CCOC(=O)Cc1cc(=O)n(-c2nc3ccccc3s2)[nH]1,"inconclusive: 7.94 µM [activator, partial curve]",–
O=C(Cn1ncc2c3ccccc3n(Cc3ccc(F)cc3)c2c1=O)N1CCC2(CC1)OCCO2,"inconclusive: 31.6 µM [activator, single point]",–
Cc1ccc(N2C(=O)C(NC(=O)c3ccccc3F)(C(F)(F)F)C3=C2CC(C)(C)CC3=O)cc1 (stereo not given),"inconclusive: 39.8 µM [activator, single point]",–
CCCCNC(=O)c1nn(-c2ccc(C)cc2)c(=O)c2c1c1ccccc1n2C,–,inactive: 9.87%
Cc1cnc(CNc2nc(-c3ccc(C(=O)N(C)C)cc3)nc3ccccc23)cn1,–,inactive: -2.91%
Cc1cc(C)nc(-n2nc(C)cc2NC(=O)CN2CCc3ccccc3C2)n1,"inconclusive: 31.6 µM [activator, single point]",–

SMILES,Potency,"max response, negative = inhibition"
COc1cc(/C=C2/C(=O)NC(=O)N(c3ccccc3)C2=O)ccc1O,–,inactive: 4.16%
O=C(Nc1nc2c(s1)CCCC2)c1ccc(S(=O)(=O)N2CCCc3ccccc32)cc1,"inconclusive: 39.8 µM [inhibitor, single point]",–
Cc1ccc(-c2nc(CS(=O)(=O)CC(=O)N3CCN(c4cccc(C)c4C)CC3)c(C)o2)cc1,–,inactive: -7.33%
O=C(CN(c1ccc(Cl)c(C(F)(F)F)c1)S(=O)(=O)c1ccccc1)N/N=C/c1cccc2c1OCCO2,"inconclusive: 39.8 µM [inhibitor, single point]",–
CCN1CCN(c2csc3ccc(C)cc3c2=O)CC1,–,inactive: -3.45%
COc1cc(NS(=O)(=O)c2ccc(N/C=C(\C=O)c3nc4ccccc4o3)cc2)nc(OC)n1,"inconclusive: 12.6 µM [activator, partial curve]",–
CCCn1c(SCc2nc(-c3cc(OC)ccc3OC)no2)nnc1-c1ccc(Cl)cc1,–,inactive: 22.2%
CCOC(=O)c1c(NC(=O)CN2CCOCC2)sc2c1CC(C)(C)OC2,"inconclusive: 25.1 µM [activator, single point]",–
CC(=O)Nc1c(C)nn(-c2ccccc2)c1N1CCC(C(=O)Nc2ccc(F)cc2Cl)CC1,"inconclusive: 25.1 µM [activator, partial curve]",–
O=C(Nc1nc2c(s1)CCCC2)Oc1ccccc1,"inconclusive: 39.8 µM [inhibitor, single point]",–
N#Cc1ccc(C23CC4(C2)[C@H](CN(CC2CCCCC2)[C@@H]4c2ccccc2)C3c2ccc(C(F)(F)F)cc2)cc1 (stereo not given in full),"inconclusive: 31.6 µM [inhibitor, single point]",–
COc1ccc(C(C(=O)NC2CCCC2)N(C(=O)c2snc(-c3ccc(F)cc3)c2N)c2ccc(F)cc2)cc1 (stereo not given),active: 25.1 µM,–
COc1ccccc1NC(=O)CSc1nnc(-c2nonc2NC(C)=O)n1-c1ccccc1,"inconclusive: 39.8 µM [activator, single point]",–
Cc1cc(C(=O)N/N=C\c2ccc(COc3ccc([N+](=O)[O-])cc3)o2)ccc1[N+](=O)[O-],"inconclusive: 31.6 µM [inhibitor, single point]",–
CCOC(=O)c1ccc(N2C(=O)CC(NC3CCN(C(=O)c4ccc(F)cc4)CC3)C2=O)cc1 (stereo not given),"inconclusive: 20 µM [activator, single point]",–
CC(C)(C)c1ccc(C(=O)Nc2cc(-c3ccccc3)nn2-c2ccccc2)cc1,"inconclusive: 3.98 µM [inhibitor, partial curve, poor fit]",–
COc1cc(NC(=O)c2ccco2)c(OC)cc1NC(=O)CCC(=O)Nc1cc(C)ccc1C,"inconclusive: 25.1 µM [activator, single point]",–
Cc1cccc(/C=C/C(=O)c2ccc(N3CCOCC3)cc2)c1,"inconclusive: 39.8 µM [activator, single point]",–
Cc1ccc(NC(=O)COc2ccc(/C=C3/SC(=Nc4ccccc4)N(Cc4cccnc4)C3=O)cc2)cc1,"inconclusive: 6.31 µM [inhibitor, full curve, poor fit]",–
CCOC(=O)N1CCC(N2Cc3cccc(C(=O)NC(C)c4ccc5c(c4)OCCO5)c3C2=O)CC1 (stereo not given),"inconclusive: 31.6 µM [activator, single point]",–
